Screen size: about 45,000 compounds; about 200 (0.44%) were called active. Another 7% or so got no clear call; they are omitted. The call rests on the fitted dose curve; in most records, active means well fitted activation curve with a large enough effect; inconclusive means small, poorly fitted or top-dose-only effect; inactive means no such curve, though single readings can be large or run the other way. This is one part of the list.
test: qHTS of TDP-43 Inhibitors: NCGC Sytravon Library Screen; conditions: yeast TDP-43 toxicity rescue, BacTiter-Glo growth, 24 h; series mostly up to 46.1 µM; growth rescue (activation): at the top concentration; further: 0% is about no effect; nearly all actives have a fitted effect of over 55% in size
In short: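 TDP-43-expressing yeast, pregrown in raffinose, seeded at OD600 0.02 in galactose medium with compound for 24 hr at 30 deg C. Growth read by BacTiter-Glo luminescence, so rescue of toxicity appears as activation.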

SMILES | growth rescue (activation)
O=C(COC(=O)c1cccnc1Nc1ccccc1F)NC1CC1 | inactive: 3.37%
COc1ccccc1C(=O)CN1C(=O)NC2(CCCCCC2)C1=O | inactive: 8.8%
O=C(O)CC12CC3CC(C1)CC(n1ncc(NCc4ccccc4)c(Cl)c1=O)(C3)C2 | inactive: 31.2%
CCN(C(=O)/C=C/c1ccc2c(c1)OCO2)c1ccccc1 | inactive: 16%
COc1ccc(S(=O)(=O)N2CCN(CC(=O)N3c4ccccc4CC3C)CC2)cc1OC (configuration not stated) | inactive: 26.7%
Cc1cc(NC(=O)CCCN2C(=O)/C(=C/c3ccccc3Cl)SC2=S)no1 | inactive: 11.4%
NC(=O)[C@@H]1CCCN1C(=O)c1ccc2oc(CCc3ccccc3)nc2c1 | inactive: -0.792%
Cc1cc(C)c2c(=O)[nH]c(SCC(=O)c3ccc(F)c(C)c3)nc2n1 | inactive: 4.36%
CN(C(=O)COC(=O)c1ccc(Cl)cc1N)C1CCS(=O)(=O)C1 (configuration not stated) | inactive: 9.13%
Cc1[nH]c(=O)c(C#N)c(C)c1CCC(=O)Nc1cc(S(C)(=O)=O)ccc1Cl | inactive: -4.53%
CC(=O)c1ccccc1NC(=O)COC(=O)c1ccccc1NC(=O)c1ccccc1 | inactive: 12.4%
CC(=O)c1ccc(S(=O)(=O)Nc2ccc(N3CCOCC3)cc2)cc1 | inactive: 14.4%
N#C/C(=C\c1ccc(-c2ccccc2C(=O)O)o1)c1nc2ccccc2[nH]1 | inactive: 7.21%
CC1CCCN(Cc2csc(N)n2)C1 (configuration not stated) | inactive: 8.71%
COc1ccc(/C=C(\NC(=O)c2ccc(C)cc2)C(=O)NCCCN2CCOCC2)cc1OC | inactive: 9.53%
COc1cccc(NC(=O)N2CCCC2C(=O)NCc2ccco2)c1 (configuration not stated) | inactive: -6.41%
CCC(CC)NC(=O)CN1CCN(S(=O)(=O)c2ccc(Br)s2)CC1 | inactive: 9.95%
O=C(NCc1ccccc1Cl)C1(S(=O)(=O)c2ccc(Cl)cc2)CC1 | inactive: 12.2%
CCOC(=O)c1c(NC(C)=O)c2c3c(sc2n1Cc1nc(-c2ccc(Cl)cc2)oc1C)CCCC3 | inactive: -3.83%
c1ccc2c(-c3nnc4n3CCCCC4)cc(-c3ccncc3)nc2c1 | inactive: 17.6%
CCOC(=O)Cc1csc(N/C(=N/S(=O)(=O)c2ccc(F)cc2F)c2ccccc2)n1 | inactive: -5.05%
Nc1nc(-c2cc(O)ccc2[N+](=O)[O-])cc(-c2ccccc2)c1[N+](=O)[O-] | inactive: 1.61%

SMILES | growth rescue (activation)
CCOc1ccc(C(=O)Nc2c(C(=O)c3ccccc3)oc3ccccc23)cc1 | inactive: 1.8%
CCOC(=O)c1c(C)[nH]c(C(=O)N2CCN(C(=O)OCC)CC2)c1C | inactive: -2.08%
CC(OC(=O)CNS(=O)(=O)/C=C/c1ccccc1)C(=O)Nc1ccc(S(=O)(=O)N2CCCC2)cc1 (configuration not stated) | inactive: 12.5%
COc1ccc(S(=O)(=O)NCc2cccnc2)cc1NC(=O)c1ccc(Cl)cc1 | inactive: 3.21%
O=C(COC(=O)C1=Cc2ccccc2OC1)NCc1ccc(F)cc1 | inactive: 9.75%
Cc1cccc(C)c1NC(=O)C(=O)c1cn(C)c2ccccc12 | inactive: 16.8%
CN(c1ccccc1)S(=O)(=O)c1cccc(C(=O)Nc2nn[nH]n2)c1 | inactive: 3.08%
COc1cc(OC)cc(C(=O)Nc2cccc(NC(=O)c3ccccc3)c2)c1 | inactive: 22.6%
COc1ccc(C2CCCN2C(=S)Nc2c(C)cccc2C)cc1OC (configuration not stated) | inactive: 15.3%
COc1ccc(CCN(Cc2ccccn2)C(=S)Nc2ccccc2C)cc1OC | inactive: 16.1%
CC(=O)c1cccc(-n2nnnc2SCC(=O)Nc2cc(C)on2)c1 | inactive: 12.1%
COc1ccc(CC(=O)OC2CCCN(C)C2)cc1 (configuration not stated) | inactive: -37.5%
Cc1nnc(NC(=O)CS(=O)(=O)Cc2ccccc2)s1 | inactive: -29.8%
Cc1onc(C(=O)NCc2ccc(F)cc2)c1[N+](=O)[O-] | inactive: 12.7%
COc1ccc(-c2ccc(CCC(=O)O)n2CC2CCCO2)cc1 (configuration not stated) | inactive: 12.4%
CN(C(=O)COC(=O)CNC(=O)c1sc2ccccc2c1Cl)C1CCS(=O)(=O)C1 (configuration not stated) | inactive: 0.845%
C=CCN=C1CC(C)(C)C(C(=O)OC)C(O)=C1C(=O)CCC (configuration not stated) | inactive: -0.916%
COc1ccc(C(=O)O)cc1S(=O)(=O)NC1CCN(Cc2ccccc2)CC1 | inactive: -0.876%
COc1ccc2cnn(-c3ccc(OC(F)(F)Cl)cc3)c(=O)c2c1OC | inactive: 17%
O=c1c([N+](=O)[O-])c(N2CCCCCC2)c2ccccc2n1-c1ccccc1 | inactive: 5.03%
CCOC(=O)N1CCC(NC(=O)C(NS(=O)(=O)c2ccc3c(c2)CCN3C(C)=O)C(C)C)CC1 (configuration not stated) | inactive: 18%
O=C(c1ccc([N+](=O)[O-])cc1)N(Cc1ccccc1)c1ccccn1 | inactive: 24.3%

SMILES | growth rescue (activation)
CCN(CC(=O)NCc1ccc(Cl)cc1)C(=O)c1oc2ccccc2c1C | inactive: 12%
O=C(CSc1nc2ccc(Nc3nc(N4CCOCC4)nc(N4CCOCC4)n3)cc2s1)NCc1ccco1 | inactive: 15.1%
CCOc1ccc2nc(SCC(=O)N3c4ccccc4Sc4ccccc43)sc2c1 | inactive: 11.3%
CCOc1ccc(S(=O)(=O)NC(C)C(=O)NCc2ccc3c(c2)OCO3)cc1 (configuration not stated) | inactive: -10.8%
O=C(O)Cn1cnc2c(oc3ccccc32)c1=O | inactive: -4.86%
O=[N+]([O-])c1c(-c2cn[nH]c2)n[nH]c1-c1cn[nH]c1 | inactive: 4.64%
CCOc1ccc2c(c1)-c1c(ssc1=S)C(C)(C)N2C(=O)c1ccco1 | inactive: 8.21%
OCCN=c1cc(-c2ccccc2)oc2ccc(Cl)cc12 | inactive: 13.9%
O=C(CSc1nncn1-c1ccccc1)Nc1ccc(F)cc1F | inactive: 12.5%
COC(=O)c1ccc(/C=N/N2C(C)CCCC2C)cc1 (configuration not stated) | inactive: 4.3%
O=C(O)COc1ccccc1/C=N/NC(=O)c1cccc(S(=O)(=O)Nc2cccc(Cl)c2)c1 | inactive: -1.61%
CCNC(=O)C1CCCN(C(=O)c2ccc3c(c2)OCO3)CC1 (configuration not stated) | inactive: 4.69%
CCc1ccccc1N(CC(=O)NCc1ccco1)C(=O)CCC(=O)Nc1nccs1 | inactive: -0.021%
Cc1c(NS(=O)(=O)c2cc(C(=O)O)ccc2Cl)c(=O)n(-c2ccccc2)n1C | inactive: -20.5%
CSc1ccc(C(=O)C2CCCN(C(=O)c3ccc(C)nc3)C2)cc1 (configuration not stated) | inactive: 7.96%
Cc1ccc2c(CC(=O)NC3CCCc4ccccc43)coc2c1 (configuration not stated) | inactive: -20.3%
CCOc1ccc(-c2nc[nH]c2[N+](=O)[O-])cc1 | inactive: 5.75%
Clc1ccc(-c2cnc3cccnn23)cc1 | inactive: 12.5%
COc1ccc(-c2csc3nc(-c4ccccc4OC)oc(=O)c23)cc1 | inactive: 4.12%
COc1cc(C(N)=O)cc(Cl)c1OC | inactive: 2.64%
CCN(CC)C(=O)C(Oc1ccc(S(=O)(=O)N2CCCC2)cc1[N+](=O)[O-])c1ccccc1 (configuration not stated) | inactive: -9.77%
COCCCNC(=O)c1ccc2nc(Cc3ccc(OC)cc3)oc2c1 | inactive: 24.9%

SMILES | growth rescue (activation)
O=C(N/N=C/c1ccccn1)c1ccc(NC(=O)c2ccc(F)cc2)cc1 | inactive: -7.58%
CC(C)c1ccc(CNn2cnnc2)cc1 | inactive: 5.53%
O=C(OCN1C(=O)c2ccccc2C1=O)c1cccs1 | inactive: 25%
CCCN1CCN(C(=S)Nc2ccc(S(N)(=O)=O)cc2)CC1 | inactive: 13.5%
O=C(NCc1ccc2c(c1)OCO2)c1cc(-c2cc(Cl)ccc2O)n[nH]1 | inactive: 2.76%
COc1cc2cc(C(=O)N/N=C/c3cccc(OC)c3OC)[nH]c2cc1OC | inactive: -10.5%
Cc1ccc(-c2nc3ccc(Cl)cn3c2Nc2ccc3c(c2)OCCO3)o1 | inactive: -3.96%
CCC(Sc1nc(C)cc(C)n1)C(=O)Nc1cc(C)on1 (configuration not stated) | inactive: 14.4%
CC(OC(=O)c1ccc(-c2ccc([N+](=O)[O-])cc2)o1)C(=O)NC(N)=O (configuration not stated) | inactive: 3.05%
CC1CCCN(C(=O)CSc2nnc(-c3ccc(O)cc3)o2)C1 (configuration not stated) | inactive: -5.14%
COC(=O)c1ccc(COC(=O)c2cccnc2Cl)cc1 | inactive: 17.8%
COc1ccc(C(=O)CSc2nccn2C)cc1 | inactive: -13.1%
CC(C)N(Cc1nc(-c2ccc(Cl)cc2)no1)Cc1nccn1C | inactive: 3.2%
CCCCC(=O)Nc1ccc(NC(=O)c2ccccc2[N+](=O)[O-])cc1OC | inactive: -0.742%
NC(=O)CN1CCCC1c1ccc2c(c1)OCCO2 (configuration not stated) | inactive: 3.71%
O=C1CCC(=O)N1Cc1c(Cl)cccc1Cl | inactive: 4.92%
O=S(=O)(c1ccc(C2CCCCC2)cc1)N1CCOCC1 | inactive: 15.1%
O=C(NCc1ccc(F)cc1)C1CCCN(S(=O)(=O)c2ccc(Br)s2)C1 (configuration not stated) | inactive: 11.8%
CN(CC(=O)NC1CCCc2ccccc21)S(=O)(=O)c1cccs1 (configuration not stated) | inactive: 23.5%
O=C1CC(NNc2nc3ccccc3s2)C(=O)N1c1ccc(F)cc1 (configuration not stated) | inactive: -14.5%
COc1ccc(NC(=O)CNC(c2ccccc2)c2ccccc2)cc1Cl | inactive: 9.68%
O=C(/C=C/c1cccc(Br)c1)Nc1nn[nH]n1 | inactive: 15.1%

SMILES | growth rescue (activation)
CCCCC(CC)CNC(=O)C(=O)C1C(=O)Nc2ccccc21 (configuration not stated) | inactive: -1.89%
CCC(=O)N(Cc1cc2c(C)ccc(C)c2[nH]c1=O)C1CCCCC1 | inactive: 4.56%
Cc1nc(Nc2cccc(O)c2)c2c3c(sc2n1)CCC3 | inactive: 26.2%
O=C(NCCc1ccccc1)NC(Cc1ccccc1)C(=O)O (configuration not stated) | inactive: 2.71%
CC1CCc2sc(C(=O)OCC(=O)NCc3ccccc3)cc2C1 (configuration not stated) | inactive: 18.5%
C=CCn1c(SCC(=O)NC(=O)c2cccc([N+](=O)[O-])c2)nnc1-c1ccccc1 | inactive: -13.2%
COc1ccc(C2=NO[C@@H]3[C@@H]4C[C@@H]([C@H]5C(=O)N(C)C(=O)[C@@H]45)[C@H]23)c(OC)c1 | inactive: 0.57%
Cc1c(NC(=O)[C@@H](NC(=O)c2ccc(Cl)c([N+](=O)[O-])c2)C(C)C)c(=O)n(-c2ccccc2)n1C | inactive: 2.78%
Cc1ccc(NC(=O)CN(C)Cc2cccs2)cc1Cl | inactive: -9.03%
O=C(COC(=O)c1ccc(O)cc1)Nc1nccs1 | inactive: 7.45%
Fc1ccc(/C=N/NC(=S)NCCc2ccccc2)cc1F | inactive: 11.8%
O=C(Nc1ccc2c(c1)CCC2)c1ncoc1-c1ccccc1F | inactive: -16.9%
COc1cc(S(=O)(=O)NC2CC(C)(C)NC(C)(C)C2)c(OC)cc1Cl | inactive: -16%
Cc1ccsc1/C=N/NC(=O)c1cccc(S(=O)(=O)Nc2ccccc2Cl)c1 | inactive: 5.44%
CC(=O)c1cccc(NC(=O)CCNC(=O)c2cccc(C)c2)c1 | inactive: 0.249%
CC(C(=O)Nc1ccc(Cl)cc1Cl)N1C(=O)NC2(CCCC2)C1=O (configuration not stated) | inactive: -1.04%
Cn1cc(/C=N/NC(N)=S)c2ccccc21 | inactive: 20.2%
CC(C)c1nc2cc(Cl)ccc2n(Cc2ccccc2)c1=O | inactive: 24.1%
COc1cc(/C=C2\SC(=O)N(CC(=O)Nc3ccccc3F)C2=O)cc(Cl)c1O | inactive: 0.294%
